Here are results for 14 molecules from PMC12136788.

Some of the results follow.

To fix the notation:
B1: 183518366_183518961_2782_CDS_ENSG00000116698_ENST00000515829|human|control|control (ssRNA)
RNA: GGGAGUUCUACAGUCCGACGAUCGGAGCUGGAUGUCAGGUUUUUCCCAUAUACCUCAUUGAACAUACUAUUAUUUGGGUAUCUUUCCUGAUUGAGAGAGAAUCCGGUGAGGGACAGGAAAGAGGAUGAAUGUGACAUGAGCUCCAACAGAGGAUUGAGCAUCA
B2: chr6:52144354:52144355:-_ENSG00000112118_ENST00000229854|hu_mus|FALSE|FALSE (ssRNA)
RNA: GGGAGUUCUACAGUCCGACGAUCAGCAGGGGCCUUCUCUGGCAUCUCCUGGAUGGUGAUGGUCUGAUGGUCCUUGUAGACAGACAGGCCAUACUCUGUCUCCAGGGGGUUGUUCUCCUCAUCCUUUGUGGGAUAAACAGAACUCAACAGAGGAUUGAGCAUCA
B3: chr6:13820011:13820012:-_ENSMUSG00000052419_ENSMUST00000155856|mus_mus|FALSE|FALSE (ssRNA)
RNA: GGGAGUUCUACAGUCCGACGAUCGUUUAGUACAUUUUUAUUAAACUUUUUCUCAGAGAUAAAAGUUUUUGGCUAAGAUCUAAGUACAAUAUCAACUUGCGAGAUAAAAACAGAAGCAUUAAAAAAAAAGAAAACCAGUAACAACAACAGAGGAUUGAGCAUCA
B4: chr2:216981417:216981418:+_ENSG00000079246_ENST00000392132|hu_hu|hu_hu_hu_mus_True|8_28 (ssRNA)
RNA: GGGAGUUCUACAGUCCGACGAUCCUGAUACUGGUCCUUGCCAGCAAGGGCAUUAUCAGUGCCAUCUGUGCCAUAGAGGACUAACGCAAUCUCAUCUUUGCUCUCCGCAAACACCUGUCGUUGGACAAACAUGGUUAUCACUUUCAACAGAGGAUUGAGCAUCA
B5: chr5:72801247:72801248:+_ENSG00000145741_ENST00000335895|hu_hu|FALSE|FALSE (ssRNA)
RNA: GGGAGUUCUACAGUCCGACGAUCUUAUUAAUCUUUGUUUCAAACUUGAUUCCCAGGCUUCUUCGGCUUAAUUAGCUGCAAAGAAUGAAUUGUGUAUAAGCAAAAACUGAAAAGAGCUGCAGUGUCCAAGGGGCUUGGGCUUAACAACAGAGGAUUGAGCAUCA
B6: chr12:13295503:13295504:+_ENSMUSG00000020576_ENSMUST00000042953|mus_mus|FALSE|FALSE (ssRNA)
RNA: GGGAGUUCUACAGUCCGACGAUCUCCCCGGUAAUUGAUGACCAAGAGCUCUGCAGACCACUGUGCACUGGCUUUGUAUUCUAAAAAUACCAACCCAGCAAUGGCGUAGCUUAAGUCCCCAGCAAAGACAGAUGCCGGGGCAAUCAACAGAGGAUUGAGCAUCA
B7: chr6:86474593:86474594:-_ENSMUSG00000051695_ENSMUST00000053015|mus_mus|FALSE|FALSE (ssRNA)
RNA: GGGAGUUCUACAGUCCGACGAUCCAUUUCUUAUCGACAAACAGAAAAUAAAAUCCAUGAGCCAAAAAAACCCAAACGAAACUAAAAACAGGGAAAAGCUUAUAAAACUAAAUAUGGAUCCCAGCAUUAACGGCUGAACAGAGACAACAGAGGAUUGAGCAUCA
B8: chr7:7679991:7679992:-_ENSG00000106399_ENST00000396682|hu_hu|hu_hu_hu_mus_False|68_98 (ssRNA)
RNA: GGGAGUUCUACAGUCCGACGAUCUGGGAUGAAUCUUUUCCAGCCUCCCCACGAAGCACACGGGCCGGUCGAUGAAUUGUGGUAACAUGCUGGCGUUGACGCGCGCUUUGGGGAGCUGCAUUAUGUCCUCCAUGAUUCUGCCGCCAACAGAGGAUUGAGCAUCA
B9: 204304137_204304257_4015_3pUTR_ENSG00000173166_ENST00000319170|human|control|control (ssRNA)
RNA: GGGAGUUCUACAGUCCGACGAUCUGAAAAUAAAGUCCUAUGGUGGCUACCAGUCUCUGGAGAGCUUGGUGUUCUGGUCUCUUUUGGGGGGAGCAGGAGGGGGUCCUCUCCGCAACGUUGCAUAGCCUGAUAUAUGACUGCCUCCAACAGAGGAUUGAGCAUCA
B10: chr7:141445308:141445309:+_ENSG00000106028_ENST00000265304|hu_hu|hu_hu_hu_mus_False|48_88 (ssRNA)
RNA: GGGAGUUCUACAGUCCGACGAUCUAUGAUUGUUGUUGCUUGCCGCCUCACAUUAUUUUUAUCCAUGUACUCGCCAUAGUCCACUUUCCCUUCCAAAAAUAUACGAGCCCCCUUUUUCACAUACUGAUAUGCCACAUCUCUGAGCAACAGAGGAUUGAGCAUCA
B11: chr19:10626314:10626315:-_ENSMUSG00000024667_ENSMUST00000059582|mus_mus|FALSE|FALSE (ssRNA)
RNA: GGGAGUUCUACAGUCCGACGAUCCAUGCUGGAGAAGGUGGCCAGCGUGAGCAUCUCAAGCAGCAGCUCUGAGCCACAAAAGAAGAGCAAGAUACUGUUCAUGAUAGCUUCUAGGCGGAGCACGUAGGUCUGCAGCAGCAGGUACAACAGAGGAUUGAGCAUCA
B12: chr12:90018129:90018130:-_ENSG00000070961_ENST00000261173|hu_mus|FALSE|FALSE (ssRNA)
RNA: GGGAGUUCUACAGUCCGACGAUCCUCUGCAAGCCAUGGUCUUUUCUGAACCCAGAAGGUAUCGAUCACAAAAUACAACACUAGGAUGAUAACUGUGAUGGCAGACAUCAGCAGACCUGCUUUGCCAAUCUGAACAGCCAGCUUCAACAGAGGAUUGAGCAUCA
B13: chr7:54825262:54825263:-_ENSG00000132432_ENST00000352861|hu_hu|hu_hu_hu_mus_False|28_98 (ssRNA)
RNA: GGGAGUUCUACAGUCCGACGAUCCUGCCGGCUGGGCACAAACUGCAGCAUUACCUGAUCCAUGUUUGUUGGAUGGCGGAUUGAGAGCGUAGAGACACGUAGCUCAGGGAGCUUGCUAGCCCAACGGAACCGGAAGCUGGCAACCAACAGAGGAUUGAGCAUCA
B14: chrX:71549762:71549763:+_ENSMUSG00000019087_ENSMUST00000019231|mus_mus|mus_mus_mus_hu_False|18_88 (ssRNA)
RNA: GGGAGUUCUACAGUCCGACGAUCAAACCCGUGUACUUCUUAUUGUUACAUCACCCCCACCAGAAAACGAUAACGACAGCCAAGCAGGACAGACAGUUAAGUAGUACUUCCACACUCCGCAAAUUCAGGAGCCCUAUAACCUUACAACAGAGGAUUGAGCAUCA

The target of the test is T1, UNK ZnF1-3 (human, UniProt Q9C0B0 31-174).
T1 sequence: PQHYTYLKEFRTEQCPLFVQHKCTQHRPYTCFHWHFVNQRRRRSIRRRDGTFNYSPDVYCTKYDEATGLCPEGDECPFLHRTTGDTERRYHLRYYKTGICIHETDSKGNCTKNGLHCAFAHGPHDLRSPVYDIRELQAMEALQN
Kind of test: nsRBNS (natural sequence RNA bind-n-seq); RBNS binding buffer (assumed for nsRBNS): 25 mM Tris pH 7.5, 150 mM KCl, 3 mM MgCl2, 0.01% Triton X-100, 500 ug/ml BSA, 20 U/ml SUPERase-In, 4 C; UNK is unkempt and MSI1 is Musashi-1; names of the RNAs are library labels; protein concentration not given here; high values mean tight binding.
With B1, the binding signal is 1.35 enrichment R.

Take B2: the binding signal stood at 0.332 enrichment R.

Take B3: the binding signal came to 1.38 enrichment R.

In turn, B4 gave a binding signal of 0.716 enrichment R.

B5 gave a binding signal of 1.3 enrichment R.

Turning to B6, the binding signal stood at 0.905 enrichment R.

In the case of B7, the binding signal amounted to 3.23 enrichment R.

On to B8, for which the binding signal turned out to be 0.532 enrichment R.

B9: the binding signal was determined as 1.35 enrichment R.

In turn, B10 returned a binding signal of 0.897 enrichment R.

Turning to B11, the binding signal was 2.34 enrichment R.

Molecule B12 came in with a binding signal of 1.19 enrichment R.

The molecule B13 yielded a binding signal of 1.05 enrichment R.

Molecule B14 gave a binding signal of 1.88 enrichment R.
